Sequences and labels used below:
B1: Caulobacter ParB omega fusion; a variant is named by its letters at X, in order, B8GW30 (parent)
chain: MESVVVGEPGMSEGRRGLGRGLSALLGEVDAAPAQAPGEQLGGSREAPIEILQRNPDQPRRTFREEDLEDLSNSIREKGVLQPILVRPSPDTAGEYQIVAGERAWRAAQRAGLKTVPIMVRELDDLAVLEIGIIENVQRADLNVLEEALSYKVLMEKFERTQENIAQTIGKSXSHVANXMRLLXLPDEVQSYLVSGELTAXHARAIAAAADPVALAKQIIEGGLSVRETEALARKAPNLSAGKSKGGRPPRVKDTDTQALESDLSSVLGLDVSIDHRGSTGTLTITYATLEQLDDLCNRLTRGI

Whole data set: some 81,000 sequences, median “one-hybrid fitness for binding parS DNA” near -0.17, cut for the highest 2% near 0.51. The list shows a part of the results.

The variants in this experiment derive from B1. Description: one-hybrid fitness for binding parS DNA (scaled: cognate 1, non-cognate 0); higher = stronger binding. As to conditions: with parS DNA site. A digest of the protocol:
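Values were rescaled so that cognate is 1 and non-cognate is 0. Each is a fitness, the log change in a variant's read ratio to wild type from Illumina reads of plasmids before and after selection, with three replicate libraries pooled and variants under 10 reads dropped. Selection of the Caulobacter ParB libraries, four specificity codons randomised, used E. coli USO with a HIS3 reporter, site 19 bp from the promoter, on M9-minus-histidine with 0.1 mM IPTG and 5 mM 3-AT for 48 hours at 37°C.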
For the variant SSRQ, the “one-hybrid fitness for binding parS DNA” value was at most 0.2.

Regarding SGPE, the “one-hybrid fitness for binding parS DNA” value was at most 0.2.

As to TYRS, the “one-hybrid fitness for binding parS DNA” value was at most 0.2.

As for IAAY, the “one-hybrid fitness for binding parS DNA” value was at most 0.2.

Turning to RNQK, the “one-hybrid fitness for binding parS DNA” value is at most 0.2.

Regarding QFGR, the “one-hybrid fitness for binding parS DNA” value is at most 0.2.

As to VCLY, the “one-hybrid fitness for binding parS DNA” value was at most 0.2.

Take QTLF: the “one-hybrid fitness for binding parS DNA” value was at most 0.2.

Take YRGM: the “one-hybrid fitness for binding parS DNA” value is at most 0.2.

For QRQT, the “one-hybrid fitness for binding parS DNA” value is at most 0.2.

For the variant SCYS, the “one-hybrid fitness for binding parS DNA” value is at most 0.2.

In the case of PWWS, the “one-hybrid fitness for binding parS DNA” value was at most 0.2.

Take DIWR: the “one-hybrid fitness for binding parS DNA” value is at most 0.2.

Turning to IDCR, the “one-hybrid fitness for binding parS DNA” value was at most 0.2.

In the case of APQK, the “one-hybrid fitness for binding parS DNA” value is at most 0.2.

Regarding ILTR, the “one-hybrid fitness for binding parS DNA” value was at most 0.2.

EKCR: the “one-hybrid fitness for binding parS DNA” value was at most 0.2.

Take KWNC: the “one-hybrid fitness for binding parS DNA” value was at most 0.2.

For the variant KRSA, the “one-hybrid fitness for binding parS DNA” value is at most 0.2.

For the variant GKKV, the “one-hybrid fitness for binding parS DNA” value was at most 0.2.

For TIKL, the “one-hybrid fitness for binding parS DNA” value is at most 0.2.

In the case of TTIN, the “one-hybrid fitness for binding parS DNA” value is at most 0.2.

For the variant VKVQ, the “one-hybrid fitness for binding parS DNA” value was at most 0.2.

As to IQAD, the “one-hybrid fitness for binding parS DNA” value is at most 0.2.

For the variant TLPF, the “one-hybrid fitness for binding parS DNA” value was at most 0.2.

On to GKYT, for which the “one-hybrid fitness for binding parS DNA” value is at most 0.2.

As to PRNY, the “one-hybrid fitness for binding parS DNA” value was at most 0.2.

In the case of NVPV, the “one-hybrid fitness for binding parS DNA” value was at most 0.2.

Regarding LCYR, the “one-hybrid fitness for binding parS DNA” value was at most 0.2.

As to LKLD, the “one-hybrid fitness for binding parS DNA” value was at most 0.2.

On to FSML, for which the “one-hybrid fitness for binding parS DNA” value was at most 0.2.

In the case of IPTT, the “one-hybrid fitness for binding parS DNA” value is at most 0.2.

On to PHHM, for which the “one-hybrid fitness for binding parS DNA” value is at most 0.2.

As for FPRN, the “one-hybrid fitness for binding parS DNA” value was at most 0.2.

With HAAT, the “one-hybrid fitness for binding parS DNA” value was at most 0.2.

In the case of FGQT, the “one-hybrid fitness for binding parS DNA” value is at most 0.2.

With PQTR, the “one-hybrid fitness for binding parS DNA” value was at most 0.2.

As to LFKI, the “one-hybrid fitness for binding parS DNA” value is at most 0.2.

MGHQ: the “one-hybrid fitness for binding parS DNA” value was determined as 0.369.

As to WCKK, the “one-hybrid fitness for binding parS DNA” value was at most 0.2.

As for YIPR, the “one-hybrid fitness for binding parS DNA” value was at most 0.2.

With YGMS, the “one-hybrid fitness for binding parS DNA” value was at most 0.2.

For the variant WQRT, the “one-hybrid fitness for binding parS DNA” value is at most 0.2.

For RLHS, the “one-hybrid fitness for binding parS DNA” value amounted to 0.96.

As to MTVE, the “one-hybrid fitness for binding parS DNA” value is at most 0.2.

In the case of FHGL, the “one-hybrid fitness for binding parS DNA” value was at most 0.2.

Regarding VSSY, the “one-hybrid fitness for binding parS DNA” value was at most 0.2.

On to LTPS, for which the “one-hybrid fitness for binding parS DNA” value is at most 0.2.

Regarding RLDW, the “one-hybrid fitness for binding parS DNA” value was at most 0.2.

IAER: the “one-hybrid fitness for binding parS DNA” value was at most 0.2.

For ITHG, the “one-hybrid fitness for binding parS DNA” value was at most 0.2.

Consider IKRY, for which the “one-hybrid fitness for binding parS DNA” value is at most 0.2.

As to HTFS, the “one-hybrid fitness for binding parS DNA” value is at most 0.2.

With VGHS, the “one-hybrid fitness for binding parS DNA” value is at most 0.2.

Turning to WLYS, the “one-hybrid fitness for binding parS DNA” value is at most 0.2.

On to YKHG, for which the “one-hybrid fitness for binding parS DNA” value is at most 0.2.

On to YGSR, for which the “one-hybrid fitness for binding parS DNA” value is at most 0.2.

Consider IYKA, for which the “one-hybrid fitness for binding parS DNA” value was at most 0.2.

Take SPRY: the “one-hybrid fitness for binding parS DNA” value is at most 0.2.

For KEYR, the “one-hybrid fitness for binding parS DNA” value was at most 0.2.

With IIRP, the “one-hybrid fitness for binding parS DNA” value was at most 0.2.

On to HLMV, for which the “one-hybrid fitness for binding parS DNA” value is at most 0.2.

TREV: the “one-hybrid fitness for binding parS DNA” value is at most 0.2.

CPAV: the “one-hybrid fitness for binding parS DNA” value is at most 0.2.

On to DVAG, for which the “one-hybrid fitness for binding parS DNA” value was at most 0.2.

On to DSNL, for which the “one-hybrid fitness for binding parS DNA” value is at most 0.2.

In the case of HKQR, the “one-hybrid fitness for binding parS DNA” value was at most 0.2.

For the variant RLYW, the “one-hybrid fitness for binding parS DNA” value came out at 0.279.

As for YIKS, the “one-hybrid fitness for binding parS DNA” value was at most 0.2.

For the variant SQER, the “one-hybrid fitness for binding parS DNA” value was at most 0.2.

Turning to SVTL, the “one-hybrid fitness for binding parS DNA” value is at most 0.2.

Regarding QIER, the “one-hybrid fitness for binding parS DNA” value is at most 0.2.

With ASIS, the “one-hybrid fitness for binding parS DNA” value was at most 0.2.

With MQAR, the “one-hybrid fitness for binding parS DNA” value is at most 0.2.

As to TEHG, the “one-hybrid fitness for binding parS DNA” value was at most 0.2.

Turning to MYDS, the “one-hybrid fitness for binding parS DNA” value is at most 0.2.

With QVAC, the “one-hybrid fitness for binding parS DNA” value was at most 0.2.

With PCTE, the “one-hybrid fitness for binding parS DNA” value is at most 0.2.

SGQW: the “one-hybrid fitness for binding parS DNA” value is at most 0.2.

In the case of TREM, the “one-hybrid fitness for binding parS DNA” value was at most 0.2.

For the variant YHKA, the “one-hybrid fitness for binding parS DNA” value was at most 0.2.

As for REYD, the “one-hybrid fitness for binding parS DNA” value was at most 0.2.

Take WFRY: the “one-hybrid fitness for binding parS DNA” value is at most 0.2.

Consider LHNG, for which the “one-hybrid fitness for binding parS DNA” value was at most 0.2.

As to QWTV, the “one-hybrid fitness for binding parS DNA” value is at most 0.2.

Consider PLYY, for which the “one-hybrid fitness for binding parS DNA” value is at most 0.2.

For IQNG, the “one-hybrid fitness for binding parS DNA” value was at most 0.2.

For the variant HNME, the “one-hybrid fitness for binding parS DNA” value was at most 0.2.

In the case of LSHL, the “one-hybrid fitness for binding parS DNA” value was at most 0.2.

Take LALV: the “one-hybrid fitness for binding parS DNA” value was at most 0.2.

NNAW: the “one-hybrid fitness for binding parS DNA” value is at most 0.2.

On to RMYH, for which the “one-hybrid fitness for binding parS DNA” value was found to be 0.234.

As for EHVA, the “one-hybrid fitness for binding parS DNA” value was at most 0.2.

For LHGA, the “one-hybrid fitness for binding parS DNA” value is at most 0.2.

With MGDG, the “one-hybrid fitness for binding parS DNA” value is at most 0.2.

Regarding GLTH, the “one-hybrid fitness for binding parS DNA” value is at most 0.2.

NEMI: the “one-hybrid fitness for binding parS DNA” value is at most 0.2.

Regarding THDN, the “one-hybrid fitness for binding parS DNA” value was at most 0.2.

Consider THHW, for which the “one-hybrid fitness for binding parS DNA” value was at most 0.2.

Take CCMG: the “one-hybrid fitness for binding parS DNA” value is at most 0.2.

As for GKMS, the “one-hybrid fitness for binding parS DNA” value is at most 0.2.

Take KRNS: the “one-hybrid fitness for binding parS DNA” value was at most 0.2.

As for NIEL, the “one-hybrid fitness for binding parS DNA” value was at most 0.2.

Regarding EQCR, the “one-hybrid fitness for binding parS DNA” value is at most 0.2.

With PSFL, the “one-hybrid fitness for binding parS DNA” value is at most 0.2.

In the case of IWRT, the “one-hybrid fitness for binding parS DNA” value was at most 0.2.

Regarding KIYF, the “one-hybrid fitness for binding parS DNA” value was at most 0.2.

Consider KSMS, for which the “one-hybrid fitness for binding parS DNA” value was at most 0.2.

Regarding RMPY, the “one-hybrid fitness for binding parS DNA” value is 0.322.

For the variant TANR, the “one-hybrid fitness for binding parS DNA” value is at most 0.2.

In the case of TTWY, the “one-hybrid fitness for binding parS DNA” value was at most 0.2.

Regarding ATEC, the “one-hybrid fitness for binding parS DNA” value was at most 0.2.

With DGPC, the “one-hybrid fitness for binding parS DNA” value was at most 0.2.

For YMKC, the “one-hybrid fitness for binding parS DNA” value is at most 0.2.

As for SRTF, the “one-hybrid fitness for binding parS DNA” value is at most 0.2.

For VMLV, the “one-hybrid fitness for binding parS DNA” value was at most 0.2.

Consider LTML, for which the “one-hybrid fitness for binding parS DNA” value was at most 0.2.

As to PVGW, the “one-hybrid fitness for binding parS DNA” value is at most 0.2.

REHT: the “one-hybrid fitness for binding parS DNA” value was at most 0.2.

TKPV: the “one-hybrid fitness for binding parS DNA” value is at most 0.2.

For the variant PRDE, the “one-hybrid fitness for binding parS DNA” value is at most 0.2.

IQRS: the “one-hybrid fitness for binding parS DNA” value was at most 0.2.

For the variant GPDF, the “one-hybrid fitness for binding parS DNA” value was at most 0.2.

PIQS: the “one-hybrid fitness for binding parS DNA” value is at most 0.2.

As for QRDG, the “one-hybrid fitness for binding parS DNA” value was at most 0.2.

As for DRGY, the “one-hybrid fitness for binding parS DNA” value is at most 0.2.

Turning to EHRR, the “one-hybrid fitness for binding parS DNA” value is at most 0.2.

In the case of QVRF, the “one-hybrid fitness for binding parS DNA” value was at most 0.2.

With WYYS, the “one-hybrid fitness for binding parS DNA” value is at most 0.2.

In the case of KCTC, the “one-hybrid fitness for binding parS DNA” value was at most 0.2.

Turning to LLGR, the “one-hybrid fitness for binding parS DNA” value was at most 0.2.

Turning to TPQD, the “one-hybrid fitness for binding parS DNA” value was at most 0.2.

Consider GYGM, for which the “one-hybrid fitness for binding parS DNA” value is at most 0.2.

As to KRDL, the “one-hybrid fitness for binding parS DNA” value was at most 0.2.

Regarding GSNT, the “one-hybrid fitness for binding parS DNA” value was at most 0.2.

Turning to CSWC, the “one-hybrid fitness for binding parS DNA” value is at most 0.2.

As for ECKT, the “one-hybrid fitness for binding parS DNA” value was at most 0.2.

In the case of PGYQ, the “one-hybrid fitness for binding parS DNA” value is at most 0.2.

For the variant SPHM, the “one-hybrid fitness for binding parS DNA” value was at most 0.2.

For the variant PNIS, the “one-hybrid fitness for binding parS DNA” value was at most 0.2.

Turning to PPQV, the “one-hybrid fitness for binding parS DNA” value is at most 0.2.

For the variant EMMN, the “one-hybrid fitness for binding parS DNA” value is at most 0.2.

On to PVAP, for which the “one-hybrid fitness for binding parS DNA” value was at most 0.2.

Take PMFR: the “one-hybrid fitness for binding parS DNA” value is at most 0.2.

As to WILG, the “one-hybrid fitness for binding parS DNA” value is at most 0.2.

In the case of SWGV, the “one-hybrid fitness for binding parS DNA” value was at most 0.2.

Regarding RAYA, the “one-hybrid fitness for binding parS DNA” value worked out at 0.602.

In the case of SQKG, the “one-hybrid fitness for binding parS DNA” value was at most 0.2.

As to ISVV, the “one-hybrid fitness for binding parS DNA” value was at most 0.2.

In the case of ESRL, the “one-hybrid fitness for binding parS DNA” value is at most 0.2.

Regarding AIHK, the “one-hybrid fitness for binding parS DNA” value is at most 0.2.

On to YQLR, for which the “one-hybrid fitness for binding parS DNA” value was at most 0.2.

In the case of VVCY, the “one-hybrid fitness for binding parS DNA” value was at most 0.2.

(Values after a collection of fitness landscapes (doi:10.1016/j.celrep.2020.107928).)
